The structures appear in SMILES notation. Out of some 4,800 compounds screened, about 410 (8.5%) showed an effect of 50% or more. Some of the results follow.

For this test, the system named is Plasmodium falciparum. In words: Confirmatory screen in NF54 pLDH assay, in single point, at 2uM, 72h. The test is classed as functional, Erythrocyte. The settings on record: timepoint 72 hour.
For the compound `C[C@H]1CCCN(C(=O)CNC(=O)Cc2ccccc2)CC1`, the % Inhibition (in general, the change of the read-out against control, counted positive when it falls) is on record as -10%.
`COc1cccc(-c2noc3nc(C)cc(C(=O)NCCCn4ccc(C)n4)c23)c1`: the “% Inhibition” value was found to be 11%.
To `c1coc([C@H](CNC2CCCC2)N2CCCC2)c1` belongs -12%; to `CCOC(=O)[C@@H]1C(=O)Nc2cc(OC)ccc21`, 9%; to `C[C@@H](CO)NC(=O)Nc1cc(Br)c(F)cc1Cl`, 13%.
As to `O=C1NC(=O)[C@@H]2CN(C(=O)[C@@H]3CCO[C@H]3c3ccc(Cl)c(F)c3)C[C@H]12`, the “% Inhibition” value is given as 9%.
For the compound `CC(C)NC(=O)CN(C)S(=O)(=O)c1ccc(Br)cc1`, the “% Inhibition” value is listed as -12%.
For `Cc1cc(-c2ccccc2)c(C#N)c(=O)n1C(=O)c1ccc(C#N)cc1` the value was 11%; for `CN(CC(=O)Nc1ncccn1)S(=O)(=O)c1ccc2c(c1)OCCCO2`, -13%.
Regarding `O=C(O)Cc1cccc(NC(=O)C2C3Cc4ccccc4C32)c1` (stereo unspecified), the “% Inhibition” value stood at 2%.
Regarding `O=C(NC1CCCCC1)c1cc2c(Cl)ccc3c2n1CCO3`, the “% Inhibition” value is listed as -22%.
Take `O=C(NC1CCCOC1)NC1CCCOc2c1ccc1ccccc21` (stereo unspecified): the “% Inhibition” value amounted to 7%.
For the compound `CC(=O)Nc1ccc(S(=O)(=O)NCc2ccc(C(=O)NC3CCC(C)CC3)cc2)cc1` (stereo unspecified), the “% Inhibition” value is listed as 11%.
In the case of `O=C(Nc1cccc(Cl)c1)Nc1cccc(-c2cnc3n2CCC3)c1`, the “% Inhibition” value was 75%.
Consider `Cc1c(-c2ccccc2Br)[nH]c2cc3c(cc2c1=O)OCCO3`, for which the “% Inhibition” value is listed as -24%.
`COc1ccc(N2CCN(Cc3c(O)nc(O)c(C#N)c3C)CC2)cc1`: the “% Inhibition” value turned out to be 2%.
For `Cc1c2c(=O)n(-c3nc4ccccc4s3)n(Cc3ccccc3)c2cc(=O)n1Cc1ccc2c(c1)OCO2` the value was 21%.
In the case of `COCc1nncn1C1CN(C(=O)Cc2ccc(OC)c(OC)c2)C1`, the “% Inhibition” value was -12%.
Turning to `Cn1nc(-c2nc(-c3ccc(F)cc3)no2)c2c1CCN(C(=O)c1cccc(Cl)c1)C2`, the “% Inhibition” value was 2%.
To `Brc1ccc2c(c1)c1cc(Br)cc(Br)c1n2CN1CCOCC1` belongs -19%; to `O=C(Cc1cc(F)c(F)cc1F)N1CCOC[C@H]1c1ncon1`, 9%; to `O=C(N[C@@H](N1CCCC1)C(Cl)(Cl)Cl)c1ccc(Cl)cc1`, -13%.
`CCC(=O)N(CCN(C)C)Cc1c(-c2ccccc2)noc1N1CCCCC1`: the “% Inhibition” value stood at 13%.
As for `O=C(Cc1ccc(F)cc1F)N1CCc2[nH]nc(C(=O)N3CCN(c4ccccc4)CC3)c2C1`, the “% Inhibition” value is reported as 5%.
To `CC(=O)N(C1CCOCC1)[C@H]1CCCN(C(=O)Cc2cccnc2)C1` belongs -4%.
Take `O=C(N1CCCN(c2nc3ccccc3nc2-c2ccccc2)CC1)C(Cl)(Cl)Cl`: the “% Inhibition” value was 36%.
For `Cc1ccc(CN(CCN2CCCC2)Cc2ccc(C)o2)o1`, the “% Inhibition” value worked out at 9%.
For `CCn1nc(CNC[C@H](C)O)c(-c2ccccc2)n1`, the “% Inhibition” value is given as -5%.
Regarding `CC1CCCCC1OCCN1CCCC(C2(C)NC(=O)NC2=O)C1` (stereo unspecified), the “% Inhibition” value was 2%.
For `COc1ccc(CNC(=O)c2cc(C(=O)c3ccc(F)cc3)c[nH]2)cc1`, the “% Inhibition” value is recorded as -15%.
Consider `COc1ccc(CCNCC(=O)Nc2c3c(nc4ccccc24)N(C)CC3)cc1OC`, for which the “% Inhibition” value was 6%.
On to `CCOc1ccccc1C(=O)Nc1c(-n2cnnc2)nn(C)c1C`, for which the “% Inhibition” value is given as -2%.
With `CC1CC(C(=O)Nc2[nH]c(=O)ncc2F)CC(C)(C)C1` (stereo unspecified), the “% Inhibition” value stood at 84%.
For `O=C(NS(=O)(=O)c1ccc2c(c1)OCCCO2)c1cc2c(s1)CCC2`, the “% Inhibition” value turned out to be 4%.
Take `CC1CCC(NC(=O)[C@H]2CCS(=O)(=O)C2)CC1` (stereo partly specified): the “% Inhibition” value is given as -16%.
As for `Cc1ncc(CN(CCN(C)C)CC2CCCCC2)s1`, the “% Inhibition” value is reported as -3%.
Take `Cc1ccc(/N=C(/Nc2ccc(Br)cc2)c2cc(C(C)(C)C)c(O)c(C(C)(C)C)c2)cc1`: the “% Inhibition” value is given as -12%.
`CCOc1cc(=O)c(C(=O)N2CCC(C(N)=O)CC2)nn1-c1ccc(F)cc1`: the “% Inhibition” value came out at 5%.
In the case of `Cc1nccn1-c1cc(CNC(=O)[C@H]2CCCN(S(=O)(=O)c3cccs3)C2)ccn1`, the “% Inhibition” value was 7%.
To `COCCc1nc(C2(Nc3ccc(Cl)cc3)CCC2)no1` belongs 8%; to `COc1cccc(C(=O)N2C[C@@H]3C[C@H](NC(=O)c4ccccc4)[C@H]2C3)c1OC`, -2%.
To `Cc1cc(NC(=O)c2ccc[nH]2)ccc1Oc1ccncc1` belongs 1%.
As to `O=S(=O)(Nc1cccc2cccnc12)c1cccs1`, the “% Inhibition” value came to 64%.
For `O=C(NCC1(Cc2ccccc2)CCC1)N(CCO)C1CC1` the value was -1%.
Consider `COc1cccc(Cn2nc3ccc(S(=O)(=O)N4CCCC4)cn3c2=O)c1`, for which the “% Inhibition” value is 11%.
As for `O=C1c2ccccc2[C@H]2N1CCN2c1ccccc1`, the “% Inhibition” value is given as 8%.
For `Cc1c(C2=NO[C@H]3C(=O)N(c4ccc5ccccc5c4)C(=O)[C@@H]23)cnn1C` the value was 8%; for `CC(C)c1ocnc1C(=O)N[C@](C)(C#N)CCc1ccccc1`, 9%; for `Cc1cccc(C(=O)N2CCc3[nH]nc(C(=O)N[C@H]4CCCc5ccccc54)c3C2)c1`, -1%.
For `COc1ccc([C@@H]2NC(=O)c3cc(C(C)C)sc3N2)cc1COc1ccc(F)cc1F` the value was 7%.
In the case of `COc1ccc(NC(=O)Cn2cnc3nc(N(C)Cc4ccccc4)sc3c2=O)cc1Cl`, the “% Inhibition” value is given as -10%.
Consider `O=C([C@H]1CC(=O)N(c2ccc(F)c(Cl)c2)C1)N1CCN(C(c2ccccc2)c2ccccc2)CC1`, for which the “% Inhibition” value is recorded as 10%.
Regarding `Cc1ccc(OCC(=O)Nc2ccc(N3CCn4c(nc5ccccc54)C3)cc2Cl)cc1`, the “% Inhibition” value is -20%.
In the case of `CCCN1CCN(CCCNC(=O)c2ccc(Cl)c(-n3c(C)nc4cccnc43)c2)CC1`, the “% Inhibition” value was 13%.
Turning to `Cc1ccc(-c2nn[nH]n2)cc1-n1cccn1`, the “% Inhibition” value is on record as 6%.
For `Cn1cc(-c2cc(-c3cnn(C)c3)n(S(=O)(=O)c3ccc(Cl)cc3)n2)cn1` the value was -17%.
As for `O=C(c1cc(-c2ccncc2)on1)N1CCOC2(CCCCCC2)C1`, the “% Inhibition” value came out at 8%.
As to `N[C@@H](CO)c1cccc(Br)c1`, the “% Inhibition” value is 4%.
Take `O=C(Cc1ccc(Cl)cc1Cl)N1CCc2[nH]nc(C(=O)N3CCN(c4ccccc4)CC3)c2C1`: the “% Inhibition” value turned out to be 5%.
Consider `O=C(CCc1ccc2cc[nH]c2c1)NCc1cccc(Cl)c1`, for which the “% Inhibition” value was determined as 5%.
In the case of `FC(F)(F)c1ccc(-c2nc(Cn3ccnn3)co2)cc1`, the “% Inhibition” value was 2%.
Consider `COC(=O)c1cc(Cl)cc(NC(=O)CC2CCNCC2)c1`, for which the “% Inhibition” value is listed as -15%.
Regarding `Cc1nc(-c2ccc(N3CCC(NCCCn4ccnc4)CC3)cc2)cs1`, the “% Inhibition” value was 23%.
As to `CCCc1nnc(NC(=O)C(=O)OCC)s1`, the “% Inhibition” value was -3%.
Regarding `COc1ccc(CCc2nnc3n2CCOC3)cc1`, the “% Inhibition” value was -1%.
For `Cc1cc(N2CCN(c3ccccn3)CC2)n2cc(-c3ccccc3)nc2n1` the value was 14%.
As to `C[C@H](C(=O)NCC1CCN(Cc2ccccc2F)CC1)C1CCOCC1`, the “% Inhibition” value came to 3%.
As for `Cc1noc(C)c1CN1C[C@@H]2Oc3cc(F)ccc3C(=O)N(C)[C@@H]2C1`, the “% Inhibition” value worked out at 97%.
As to `CCCNC(=O)c1c(NC(=O)c2ccc3c(c2)c(C)c(C)n3Cc2ccccc2)cnn1C`, the “% Inhibition” value is on record as -21%.
In the case of `O=C(NCc1noc(Cc2ccccc2)n1)c1ccno1`, the “% Inhibition” value is listed as 5%.
For `OC(CNC1CCCNc2ccccc21)c1ccc(Cl)s1` (stereo unspecified) the value was 51%; for `Cn1c(=O)c2nc(N3CCOCC3)[nH]c2n(-c2ccccc2)c1=O`, -7%.
Consider `Cc1ccc2c(c1)[C@@H](O)C[C@@H](C)N2C(=O)c1ccco1`, for which the “% Inhibition” value is given as -4%.
For the compound `NC(=O)c1cccc(NC(=O)CC2=CCCCC2)n1`, the “% Inhibition” value is on record as -9%.
To `CC(c1ccccc1)N1C(=O)c2ccccc2C1c1c[nH]c2ccccc12` (stereo unspecified) belongs 11%; to `O=C(c1cc(F)c[nH]1)N1CCN(C(=O)c2cc(F)c[nH]2)[C@@H]2CCCC[C@H]21`, 17%; to `CC(C)CNC(=O)N1CCCC[C@H]1c1noc(COc2ccc(F)cc2)n1`, -14%.
In the case of `O=C(NC1CCCC1)c1cc2ccccc2[nH]1`, the “% Inhibition” value is -9%.
With `Cc1cc(-c2cncc(CN3CCCCC3)c2)ccc1F`, the “% Inhibition” value is 8%.
For `CN(c1nc2c(cnn2C)c(=O)[nH]1)C1CCCC1c1ccc(C(F)(F)F)cc1` (stereo unspecified) the value was 10%; for `Cc1nc2cc(F)ccc2cc1C(=O)N1CCN(S(=O)(=O)c2ccc(Br)cc2)CC1`, 6%; for `C[C@@H](CN)N(C)c1ccnc2cc(Br)cnc12`, 96%.
Turning to `CS(=O)(=O)Nc1nc2c(s1)CN(C(=O)c1ccc3c(c1)CCC=C3)CC2`, the “% Inhibition” value was 10%.
Consider `Cc1cccc(C(=O)Nc2c(C#N)c(-c3ccccc3)c(-c3ccccc3)n2Cc2ccccc2)c1`, for which the “% Inhibition” value is listed as 13%.
For `COc1ccc(Cl)cc1S(=O)(=O)N(C)[C@H]1CCc2n[nH]c(=O)n2CC1` the value was -2%.
As for `COC(=O)c1c(NC(=O)[C@H]2CCCN(S(=O)(=O)c3cnn(C)c3C)C2)cnn1C`, the “% Inhibition” value stood at 8%.
For `Cc1cc(C(=O)Nc2ccc3ccccc3c2)co1` the value was -3%.
In the case of `COC(=O)C(NCc1cnc(C)s1)C(C)O` (stereo unspecified), the “% Inhibition” value worked out at 6%.
Take `COCCN(Cc1c(-c2cccc(C)c2)noc1N1CCOCC1)C(=O)C1CCCC1`: the “% Inhibition” value is given as -11%.
As for `O=S(=O)(Oc1ccc(Cc2ncc(C(F)(F)F)cc2Cl)cc1)c1ccccc1Cl`, the “% Inhibition” value is reported as 11%.
With `COc1ccccc1[C@H]1CC(O)=Nc2c1ncn2-c1cc(F)ccc1F`, the “% Inhibition” value is given as -7%.
Turning to `COCCCn1c(COc2ccc(OC)cc2)n[nH]c1=O`, the “% Inhibition” value amounted to 0%.
For the compound `CN(C(=O)CN(C)S(=O)(=O)c1cccnc1)C1CCCC1`, the “% Inhibition” value is on record as 7%.
In the case of `O=C(Nc1nccs1)c1ccc2c(c1)CC(c1ccccc1)(c1ccccc1)OC2=O`, the “% Inhibition” value came out at 3%.
In the case of `Cc1cc(C)c(NC(=O)CCn2c(=O)c(C)nc3cc(C)c(C)cc32)c(C)c1`, the “% Inhibition” value is reported as 11%.
For the compound `CC1(C)CC(C(=O)Oc2ccccc2)CC(C)(C)N1`, the “% Inhibition” value came out at 3%.
With `COc1ccc(N2CCN(c3nc(-c4ccccc4)cs3)CC2)cc1`, the “% Inhibition” value is recorded as 0%.
Turning to `CC(C)CN(CC(C)(C)C)C(=O)c1cc[nH]n1`, the “% Inhibition” value is reported as -2%.
As to `COc1ccc(C(=O)N[C@@H](C(=O)Nc2ccccc2C)c2ccc(Cl)cc2)cc1`, the “% Inhibition” value is 16%.
On to `CN1C(=O)[C@@H]2CCCCN2c2ccc(C(=O)N3CCN(c4cccc(Cl)c4)CC3)cc21`, for which the “% Inhibition” value stood at 8%.
In the case of `Cc1cccc(CN2CCC[C@H](C(=O)c3ccc4c5c(cccc35)CC4)C2)n1`, the “% Inhibition” value was determined as 67%.

For the origin of these results see ChEMBL document CHEMBL4888484, “Replenishing the malaria drug discovery pipeline: Screening and hit evaluation of the MMV Hit Generation Library 1 (HGL1) against asexual blood stage Plasmodium falciparum ,using a nano luciferase reporter read-out” (2022).
